# In PMC4336329 (PLoS ONE, 2015):
# Among all 310,000 compounds or so, about 14,000 (4.5%) showed an effect of 50% or more. Effects have a minus sign here. Some of the results follow.
# Target: human ether-à-go-go-related gene (hERG) potassium channel (human, UniProt Q12809)
# Assay: primary screen, population patch clamp on CHO cells stably expressing hERG
# 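Further: peak tail current of the secondary pulse compared with the same well before compound.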
# human ether-à-go-go-related gene (hERG) potassium channel, sequence (Q12809 whole entry, looked up): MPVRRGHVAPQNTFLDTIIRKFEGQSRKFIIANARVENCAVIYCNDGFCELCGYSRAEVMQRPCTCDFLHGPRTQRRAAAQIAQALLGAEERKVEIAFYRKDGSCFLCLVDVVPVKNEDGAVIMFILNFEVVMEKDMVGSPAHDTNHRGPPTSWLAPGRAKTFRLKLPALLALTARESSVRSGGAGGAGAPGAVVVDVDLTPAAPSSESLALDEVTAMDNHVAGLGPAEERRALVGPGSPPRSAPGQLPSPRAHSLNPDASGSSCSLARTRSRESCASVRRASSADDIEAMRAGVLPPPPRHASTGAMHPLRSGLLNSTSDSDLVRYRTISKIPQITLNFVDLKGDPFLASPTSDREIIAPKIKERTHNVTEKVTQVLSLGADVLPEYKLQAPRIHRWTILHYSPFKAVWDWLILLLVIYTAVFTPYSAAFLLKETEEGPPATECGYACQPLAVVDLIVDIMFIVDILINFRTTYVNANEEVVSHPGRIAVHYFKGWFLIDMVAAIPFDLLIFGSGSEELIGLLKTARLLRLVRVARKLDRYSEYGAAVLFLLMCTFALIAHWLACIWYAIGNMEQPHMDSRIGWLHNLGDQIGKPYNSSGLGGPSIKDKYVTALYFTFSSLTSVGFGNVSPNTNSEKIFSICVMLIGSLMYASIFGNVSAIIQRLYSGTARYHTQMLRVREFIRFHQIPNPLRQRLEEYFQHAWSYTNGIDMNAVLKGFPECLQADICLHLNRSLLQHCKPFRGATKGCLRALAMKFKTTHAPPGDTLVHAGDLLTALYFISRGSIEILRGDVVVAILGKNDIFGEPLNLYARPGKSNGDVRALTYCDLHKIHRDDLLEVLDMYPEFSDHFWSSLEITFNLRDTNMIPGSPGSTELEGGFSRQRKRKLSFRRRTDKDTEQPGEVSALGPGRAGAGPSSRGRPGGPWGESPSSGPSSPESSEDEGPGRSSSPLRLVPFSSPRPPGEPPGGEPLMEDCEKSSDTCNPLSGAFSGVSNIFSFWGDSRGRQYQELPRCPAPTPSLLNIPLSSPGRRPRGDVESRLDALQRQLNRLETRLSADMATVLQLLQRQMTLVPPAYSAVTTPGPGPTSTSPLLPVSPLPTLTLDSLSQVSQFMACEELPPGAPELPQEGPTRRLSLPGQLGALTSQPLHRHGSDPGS
row,SMILES,"hERG current change (%, negative = inhibition) at 10uM"
1,Cc1cc(=O)oc2cc(NC(=O)c3c(Cl)cnn3C)ccc12,6.18%
2,N/C(=N\OC(=O)C12CC3CC(CC(C3)C1)C2)c1ccncc1,5.05%
3,O=C(COC(=O)c1ccc([N+](=O)[O-])o1)NC1CCS(=O)(=O)C1 (stereo not drawn),11.4%
4,CC12CCC(C(=O)N(c3ccc(Cl)cc3)C1=O)C2(C)C (stereo not drawn),4.57%
5,COC(=O)C1CN(C(=O)COc2cccc(C)c2C)c2ccccc2O1 (stereo not drawn),-6.63%
6,COCCNC(=O)CN1CCC(n2c(C)nc3cc(C(F)(F)F)ccc32)CC1,-25.6%
7,CCOC(=O)CC1C(=O)NC2CCCCC2N1C(=O)Nc1ccc(Cl)cc1 (stereo not drawn),-10.1%
8,COc1cc(C#Cc2ccc3cc(C(C)(C)O)oc(=O)c3c2)cc(OC)c1,27.1%
9,CC(C)CN(C(=O)COC(=O)c1nc(Cl)ccc1Cl)c1c(N)n(Cc2ccccc2)c(=O)[nH]c1=O,19.5%
10,COc1cccc(C(=O)C2CCCN(Cc3ccc4nonc4c3)C2)c1 (stereo not drawn),-48.5%
11,CC1=CC(c2ccccc2)=Nc2ccc(C)cc2N1,-14.4%
12,Oc1cccc2c3c(oc12)CCCC3,13.7%
13,COc1ccccc1N(Cc1ccccc1)S(=O)(=O)c1cccc(C(=O)O)c1,10.9%
14,O=C(NCCC1=CCCCC1)c1ccc(Cl)c([N+](=O)[O-])c1,-23.3%
15,O=C(NC(CSCc1ccccc1)C(=O)N/N=C/c1ccc(O)cc1O)c1ccc([N+](=O)[O-])cc1 (stereo not drawn),-22.4%
16,CCOc1ccc(NC2=C(Cl)C(=O)N(Cc3ccccc3)C2=O)cc1,-0.258%
17,Cc1c(OC(C)C(=O)NCC2CCC(C(=O)O)CC2)ccc2c1oc(=O)c1ccccc12 (stereo not drawn),0.908%
18,O=c1[nH]c(Nc2ccc(F)cc2)cc2ccccc12,0.412%
19,CCn1nc(C)cc1C(=O)N1CCCC(C(=O)c2cccc(OC)c2)C1 (stereo not drawn),1.8%
20,Nc1nc(F)cc(N2CCCCCC2)n1,12.5%
21,COc1ccc(C(=O)Nc2oc(-c3ccccc3)c(-c3ccccc3)c2C#N)cc1,-3.15%
22,CCOc1cc(C(=S)N2CCOCC2)ccc1OC(=O)c1cccc(C)c1,-42%

row,SMILES,"hERG current change (%, negative = inhibition) at 10uM"
1,CCN1C/C(=C/c2ccc(OC)c(O)c2)C(=O)/C(=C/c2ccc(OC)c(O)c2)C1,9.33%
2,CSc1nnc(CCNC(=O)OC(C)(C)C)o1,10.8%
3,Cc1cccc(OCC(=O)Nc2ccncc2)c1,-0.803%
4,CCOC(=O)c1ccc(NC(=S)N(CCN(C)C)C(C)c2ccncc2)cc1 (stereo not drawn),-21%
5,O=C(O)C(=O)O.O=[N+]([O-])c1cccc(OCCN2CCC(Cc3ccccc3)CC2)c1,-71.1%
6,CCOC(=O)c1cc2c(C)n(-c3ccc(OCC)cc3)c(C)c2cc(C(=O)OCC)c1=O,0.773%
7,O=C(NCc1cccnc1)c1ccc(-c2cc3ccccc3oc2=O)cc1,4.65%
8,Cc1c(OC(C)C(=O)NCC(O)c2ccccc2)ccc2c3c(c(=O)oc12)CCC3 (stereo not drawn),-13.3%
9,Cn1cnnc1SCC(=O)c1cccc([N+](=O)[O-])c1,-2.06%
10,Cc1ccccc1Sc1ncnc2onc(C)c12,0.173%
11,COc1ccc(Nc2cc(C(=O)NCCCOC(C)C)c3ccccc3n2)c(OC)c1,12.2%
12,O=C(N[C@@H](Cc1ccccc1)C(=O)NC1CCCCCC1)c1ccco1,33.3%
13,Cc1cc(C)nc(NC(=O)C(c2ccccc2)c2ccccc2)c1,3.55%
14,CCC(O)(CC)C(=O)N(Nc1ccc(C)cc1)c1ccc(C)cc1,12.8%
15,O=C(CCn1c(=O)c2ccccc2n(Cc2cccc([N+](=O)[O-])c2)c1=O)N1CCc2ccccc2C1,-38.2%
16,CCOc1ccc(NC(=O)C(=O)NCc2ccncc2)cc1,-7.08%
17,C=CCn1c(N)cc(=O)nc1SC(CC)C(=O)Nc1ccc(C(C)=O)cc1 (stereo not drawn),11.2%
18,Cc1ccccc1N1CC(C(=O)Nc2nnc(SCCN3CCOCC3)s2)CC1=O (stereo not drawn),22.1%
19,O=C(CCN1C(=O)COc2ccccc21)NCCN1CCN(c2ccccc2F)CC1,-33.5%
20,COC(=O)CCN(C(C)=O)c1ccc(N)cc1,17.8%
21,CCN(CC)C1CCN(Cc2c(C(=O)N3CCCCCCC3)nc3ccc(Cl)cn23)C1 (stereo not drawn),-1.9%
22,CCOC(=O)C1CCCN(CCC(=O)Nc2ccc(C)c(C)c2)C1.Cl (stereo not drawn),-44.8%

row,SMILES,"hERG current change (%, negative = inhibition) at 10uM"
1,CC(=O)NS(=O)(=O)c1ccc(NC(=O)c2ccc(S(=O)(=O)N3CCCC3)cc2)cc1,-0.257%
2,Cc1cc(C)nc(SCC(=O)Nc2ccc3c(c2)OCO3)n1,5.56%
3,CCOc1ccccc1C(=O)NCC(=O)OCCCOC(=O)CNC(=O)c1ccccc1OCC,-24.7%
4,CCOC(=O)CSc1nc(-c2cccs2)nc2c1c(=O)n(C)c(=O)n2C,22.2%
5,O=C(N/N=C/c1cc([N+](=O)[O-])ccc1O)C1CC1,9.47%
6,C=CCn1c2ccccc2c2nnc(SCc3[nH]c(=O)[nH]c3C(=O)CCCCC(=O)OCC)nc21,4.39%
7,CC1CCCCN1CCNC(=O)c1ccc2c(c1)N(Cc1ccccc1F)C(=O)c1ccccc1S2=O (stereo not drawn),-45.1%
8,COc1ccccc1CN1CCN(C(CC(C)C)c2nnnn2Cc2cccs2)CC1.Cl (stereo not drawn),-57.9%
9,O=C1c2ccsc2SCCN1Cc1ccc(F)cc1,12.3%
10,CCOc1cc2c(cc1OCC)C(c1ccccc1OC)OC(=O)C2 (stereo not drawn),4.38%
11,CC(C)NC(=O)COc1ccc(/C=N/NS(=O)(=O)c2ccccc2)cc1,9.36%
12,CCOc1cc(N2CCOCC2)c(OCC)cc1NC(=O)COC(=O)c1ccc(Cl)cc1N,-22.8%
13,Cc1cc2cc(CNC(=O)c3ccc(Br)o3)ccc2n1C,8.71%
14,CON(C)c1nc(OCCNC(=O)OCc2ccc(Cl)cc2Cl)nc(N(C)C)n1,-24.1%
15,CCCCNS(=O)(=O)c1ccc2nc(SCC(=O)Nc3ccccc3Cl)[nH]c2c1,2.49%
16,O=C(Oc1cccc(C(=S)N2CCOCC2)c1)c1ccc([N+](=O)[O-])cc1,-31.3%
17,Cc1ccc(-c2nc3nc4ccccc4nc3n2Cc2ccco2)cc1,-18.7%
18,CCCc1oc2c(c(=O)c1CC)C(=O)CC(C)(C)C2,8.08%
19,CCCC[C@@H]1CNC(=S)N1CCCc1cc(OC)c(OC)c(OC)c1,9.02%
20,COc1ccc(CNC(=O)c2ccc(NC(=O)CC3SC(N4CCCC4)=NC3=O)cc2)cc1 (stereo not drawn),3.55%
21,O=C(Nc1cccc(S(=O)(=O)N2CCCCC2)c1)c1ccc(N2CCCC2=O)cc1,1.64%
22,CCOc1ccccc1CNCc1ccc(F)cc1.Cl,-33%

row,SMILES,"hERG current change (%, negative = inhibition) at 10uM"
1,O=S(=O)(Nc1ccc2c(c1)OCO2)c1cccc(Br)c1,-23%
2,COc1ccc(-c2c(-c3ccc(OCC(=O)NN)cc3O)n[nH]c2C(F)(F)F)cc1,-5.25%
3,CCOC(=O)CN(C(=O)CSc1nnc(-c2ccc(OC)c(OC)c2)o1)c1ccccc1,-10.3%
4,O=C1C2CCCN2C(c2ccc(F)c(F)c2)N1c1cccc(Cl)c1 (stereo not drawn),-11.1%
5,O=C(Nc1ccc(S(=O)(=O)NCC2CCCO2)cc1)c1cnccn1 (stereo not drawn),0.0697%
6,O=C(O)COc1ccccc1/C=C1\SC(=O)N(Cc2ccc(F)cc2)C1=O,18.8%
7,O=C(CSc1nnc2ccc(-c3cccnc3)nn12)Nc1ccc(F)cc1,-63%
8,Cc1ccc(NC(=O)N2CCCCC2)cc1[N+](=O)[O-],13.2%
9,COc1ccc(Cc2nnc(N)s2)cc1OC,1.89%
10,Cc1ccc(-c2cn(-c3ccccc3)c(=S)[nH]2)cc1C,17.5%
11,CN1CCN(c2nc3c(c(=O)n(C)c(=O)n3C)n2Cc2ccccc2F)CC1,-4.91%
12,C#CCOc1ccc2c3c(c(=O)oc2c1)CCCC3,8.49%
13,COc1ccc(NC(=O)CN2CCN(CC#N)CC2)cc1,-75.6%
14,CN(C(=O)c1ccc(S(=O)(=O)N2CCCC2)cc1)C1CCS(=O)(=O)C1 (stereo not drawn),4.75%
15,CCCCn1c(N)c(N(CCC(C)C)C(=O)C2=NN(c3cc(C)ccc3C)C(=O)CC2)c(=O)[nH]c1=O,-1.89%
16,CCOC(=O)CC1C(=O)NCCN1C(=O)Nc1ccccc1 (stereo not drawn),6.62%
17,Cn1c(NC(=O)/C=C/c2ccco2)cc(=O)n(C)c1=O,4.95%
18,CCOC(=O)CC1C(=O)NCCN1C(=O)c1ccc(F)cc1F (stereo not drawn),-18.5%
19,CN(C(=O)c1ccccc1-c1ncc[nH]1)C1CCCN(Cc2ccccc2F)C1 (stereo not drawn),4.41%
20,Cc1cc(C)c(C(=O)COC(=O)c2cccc(S(=O)(=O)NCc3ccccc3)c2)cc1C,-1.73%
21,Nc1nc(Nc2ccccc2F)nc(NC2CCCCC2)c1[N+](=O)[O-],16.8%
